# Experimental data taken from PMC7819943, “Rice protein-binding microarrays: a tool to detect cis-acting elements near promoter regions in rice”.
# The list shows a part of the results.
# Target: T1, OsWOX13 (Oryza sativa, UniProt Q5QMM3 1-267)
# T1 sequence: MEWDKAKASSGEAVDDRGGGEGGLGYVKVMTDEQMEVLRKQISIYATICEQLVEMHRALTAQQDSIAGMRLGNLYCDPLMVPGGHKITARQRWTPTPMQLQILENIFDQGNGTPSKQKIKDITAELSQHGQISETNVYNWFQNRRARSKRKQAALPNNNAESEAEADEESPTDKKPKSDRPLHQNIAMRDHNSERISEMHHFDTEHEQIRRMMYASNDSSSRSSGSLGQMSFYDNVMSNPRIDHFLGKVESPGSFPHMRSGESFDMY
# Assay: protein-binding microarray (RPBM); PBS, 2% BSA, 51.3 ng/ul salmon testes DNA, 50 uM zinc acetate, 200 nM TF, 25 C, 1 h; high values mean tight binding
# Conditions: protein: recombinant; tags: N-terminal polyhistidine and DsRed monomer fusion (pET32a); label: CyDye5-dUTP incorporated in the synthesized complementary strand; 3' TTTTT single-stranded linker to array surface; dsDNA, one strand shown
# In short: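 Binding signal is reported as fluorescence intensity per feature (arbitrary units) from an Axon 4000B scanner. Incubation used 200 nM of each Ni–NTA-purified, N-terminally polyhistidine- and DsRed-fused transcription factor from E. coli BL21-CodonPlus on a double-stranded custom Agilent array for 1 h at 25 °C, with 50 µM zinc acetate in the buffer, followed by washing.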
row,Sequence,binding signal
1,AGGTGACAAGTTAAACTAATATTATGTACCTAGATACGTGCGGAGTCACCTAGTGCAG,4860 fluorescence intensity (a.u.)
2,TGAAATTAATTTGATGTGATAGATTTCTAGGTTTTCTTTGCGGAGTCACCTAGTGCAG,64300 fluorescence intensity (a.u.)
3,AACATAATTAAAACTCGGCGTCGAAGATACGAGAGATGTACGGAGTCACCTAGTGCAG,7030 fluorescence intensity (a.u.)
4,TAAAGAACTCGATAATTGCAGATGGATTAGTCATCTGAGGCGGAGTCACCTAGTGCAG,6860 fluorescence intensity (a.u.)
5,GTTTAGATTTATTGTATTAGAATGTGCTACATTCAATTCTCGGAGTCACCTAGTGCAG,4190 fluorescence intensity (a.u.)
6,CCGTGTTAATTACGGACAGAATAACCTCCATATACGTGGTCGGAGTCACCTAGTGCAG,22800 fluorescence intensity (a.u.)
7,TTAATTGGTGGTCGTATTATTTGCATTATTTTCTTACAAGCGGAGTCACCTAGTGCAG,34200 fluorescence intensity (a.u.)
8,GGACATGACATCCTATTAACAGCCATCGCACGAAATTAATCGGAGTCACCTAGTGCAG,4830 fluorescence intensity (a.u.)
9,GAAACGAAACAGGGGATCAATCAAACGAAACGGCGCCAAACGGAGTCACCTAGTGCAG,4490 fluorescence intensity (a.u.)
10,AATCCCTCAATCATTCTTACTTCTCTAGGCTCGTATAGTACGGAGTCACCTAGTGCAG,4690 fluorescence intensity (a.u.)
11,ATAAATAAAATAGATTAATATGAGATATATTAGTCCACAACGGAGTCACCTAGTGCAG,11300 fluorescence intensity (a.u.)
12,GCGCTAATTTAACTGAACTTATAGTGGCCTTCATTATCATCGGAGTCACCTAGTGCAG,16600 fluorescence intensity (a.u.)
13,GCTAAATGAGTTTGTAGAAATTGATGGTCAAATATTCAAACGGAGTCACCTAGTGCAG,4000 fluorescence intensity (a.u.)
14,ATGTTATAAATCAATGATCATACAGAGTCGTGTACTCATGCGGAGTCACCTAGTGCAG,4990 fluorescence intensity (a.u.)
15,GTAATTAATTAATTAAGAAATGTGTTCACTAACGAATTGCCGGAGTCACCTAGTGCAG,48800 fluorescence intensity (a.u.)
16,CCACATAATTGTCACATAATCATAACCATATGGGACTATTCGGAGTCACCTAGTGCAG,19500 fluorescence intensity (a.u.)
17,TCACATAATTATTAATTTTACCAAATAATGATATGGTTGACGGAGTCACCTAGTGCAG,35300 fluorescence intensity (a.u.)
18,TAATTAAATAATAATAATCACGCAAATCGTCACAGACTCACGGAGTCACCTAGTGCAG,8740 fluorescence intensity (a.u.)
19,AAGATGTAATAATTGTTGGTGAATGATAATGTGACATCTTCGGAGTCACCTAGTGCAG,7160 fluorescence intensity (a.u.)
20,GCTCAATTTAAACAGTCATTCGTACAGATTCTCTATAATTCGGAGTCACCTAGTGCAG,10000 fluorescence intensity (a.u.)
21,TTATCCATCAATCCAACGTGTTTAGCTATCTCAATCATGGCGGAGTCACCTAGTGCAG,5140 fluorescence intensity (a.u.)

row,Sequence,binding signal
1,ACTGATCACTGTATTAATTATAATCAGTCACACACACACCCGGAGTCACCTAGTGCAG,24500 fluorescence intensity (a.u.)
2,GTGATTTGCTGTGGACACATTATCTGTGGTTAGAGACCTGCGGAGTCACCTAGTGCAG,8380 fluorescence intensity (a.u.)
3,AGTTTGGATTTTGGTTGAAATTGAAGATAATGTGACTGAACGGAGTCACCTAGTGCAG,3240 fluorescence intensity (a.u.)
4,TTATTCAGATGTTTCAATCAATATTTTGTGGTGTCTCACTCGGAGTCACCTAGTGCAG,8500 fluorescence intensity (a.u.)
5,GAATAATTGGTTGGTAGCTAGATTCTAATAATCAAGAGAACGGAGTCACCTAGTGCAG,18900 fluorescence intensity (a.u.)
6,ACTATTTAATTAGCTACTTGTCTTATTGACTATTTTCCAACGGAGTCACCTAGTGCAG,17200 fluorescence intensity (a.u.)
7,CATGTAATGATAGAAAGATTTGGATGAGCTTTGCATACAACGGAGTCACCTAGTGCAG,7420 fluorescence intensity (a.u.)
8,GCTTAATTGGTGGTGATAGCGTTACGTTACTAACCAAATTCGGAGTCACCTAGTGCAG,31800 fluorescence intensity (a.u.)
9,TAACTGATTAACTCACCTGCTGATTCTACAAATAAGCTACCGGAGTCACCTAGTGCAG,24600 fluorescence intensity (a.u.)
10,AAGTAATTGGAAAGAAGCTTGTTAGACAGTATTCCATAGTCGGAGTCACCTAGTGCAG,22600 fluorescence intensity (a.u.)
11,TGTAATCAAATCATAAATTAGATAAACGGTTTAGGAGAAACGGAGTCACCTAGTGCAG,20500 fluorescence intensity (a.u.)
12,CGTAATTTTCACCGGATTAAGGAAGCATAGGTTCAAGTGGCGGAGTCACCTAGTGCAG,13900 fluorescence intensity (a.u.)
13,TCCCGAAGTTCTTGATTGATGCGAGCTTGATGGCCCAAATCGGAGTCACCTAGTGCAG,25900 fluorescence intensity (a.u.)
14,CGTACGTCGATACTGAAATTAACCTTCAGCTTAATTTCCGCGGAGTCACCTAGTGCAG,3570 fluorescence intensity (a.u.)
15,TTTGATTTTCTTAAGCACAACACAAATGCAAATGCTCATGCGGAGTCACCTAGTGCAG,5380 fluorescence intensity (a.u.)
16,TGGTCAATCAGGTTTGTCGTCCAGCCCGCATTTCCTTGCACGGAGTCACCTAGTGCAG,17600 fluorescence intensity (a.u.)
17,AAGCTTAATTTGTCGTTAAGCACCTGCAGAGCTCGCATGACGGAGTCACCTAGTGCAG,15800 fluorescence intensity (a.u.)
18,TTTAATTTGACGATAGATCCAATTCGTTTAATATTTCGGACGGAGTCACCTAGTGCAG,22100 fluorescence intensity (a.u.)
19,TGCAAATTATAGTAAGTACTAAACAGAACAGAACACGGGACGGAGTCACCTAGTGCAG,6530 fluorescence intensity (a.u.)
20,ACATAATTTTATTTTAAAATGGTATTAATAGTTTTCTTATCGGAGTCACCTAGTGCAG,32000 fluorescence intensity (a.u.)
21,AGATGCAATTTATAATATAATTATACTATATTATATTGTACGGAGTCACCTAGTGCAG,12900 fluorescence intensity (a.u.)
